Data published in the supplement of paper PMC7826260.
The list shows a part of the results. The data describe in vitro nicking of single-stranded DNA by Rep domains (3 µM enzyme, 1 h, 37 °C); shown is the middle of each 90-letter strand. Values are log2 of uncut reads against the no-enzyme pool; strong cutting gives strongly negative numbers. There is no active / inactive call. Because reads are shares of a total, they shift together; uncut strands gain when others are lost, and binding without cutting may add a little.

Experiments:
Test in all cases: uncleaved DNA left, log2 of reads against the no-enzyme library (log2 ratio); higher = less cleavage (more negative = more Rep cleavage of the k-mer); sequences stand for … in CTCGTCCG…ACCGGAGA
[1] = system: T1, Rep nickase domain of Muscovy duck circovirus
T1 sequence (residues 1-111 of Rep, tag left off): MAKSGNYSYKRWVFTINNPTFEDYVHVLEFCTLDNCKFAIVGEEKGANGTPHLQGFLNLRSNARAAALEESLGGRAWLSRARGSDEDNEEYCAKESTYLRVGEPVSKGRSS
Experimental: (§1)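 A pool of 90-nt single-stranded DNAs with seven random bases just before the constant AC of the nick site (name = the seven bases) was cut by 3 µM recombinant His6-SUMO-tagged Rep nickase domain (300 nM DNA, 50 mM HEPES pH 8.0, 50 mM NaCl, 1 mM MnCl2, 1 h, 37 °C, three replicates). Uncut DNA was amplified and sequenced.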

[2] = system: T2, Rep nickase domain of banana bunchy top virus
T2 sequence (residues 1-94 of Rep, tag left off): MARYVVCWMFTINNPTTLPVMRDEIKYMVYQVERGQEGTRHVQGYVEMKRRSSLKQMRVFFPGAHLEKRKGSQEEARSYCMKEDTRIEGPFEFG
Experimental: as §1

[3] = system: T3, Rep nickase domain of cabbage leaf curl virus
T3 sequence (residues 1-116 of Rep, tag left off): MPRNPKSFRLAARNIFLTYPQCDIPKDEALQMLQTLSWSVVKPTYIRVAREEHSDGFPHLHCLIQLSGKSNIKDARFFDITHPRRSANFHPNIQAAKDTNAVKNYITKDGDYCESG
Experimental: as §1

[4] = system: T4, Rep nickase domain of chickpea chlorotic dwarf virus
T4 sequence (residues 1-124 of Rep, tag left off): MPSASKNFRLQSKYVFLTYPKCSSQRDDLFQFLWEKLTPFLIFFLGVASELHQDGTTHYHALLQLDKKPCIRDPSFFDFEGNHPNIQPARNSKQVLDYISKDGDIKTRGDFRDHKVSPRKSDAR
Experimental: as §1

[5] = system: T5, Rep nickase domain of faba bean necrotic yellows virus
T5 sequence (residues 1-98 of Rep, tag left off): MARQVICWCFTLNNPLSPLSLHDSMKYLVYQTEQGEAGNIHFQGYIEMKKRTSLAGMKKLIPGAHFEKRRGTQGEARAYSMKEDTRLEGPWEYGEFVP
Experimental: as §1

[6] = system: T6, Rep nickase domain of maize striate mosaic virus
T6 sequence (residues 1-117 of Rep, tag left off): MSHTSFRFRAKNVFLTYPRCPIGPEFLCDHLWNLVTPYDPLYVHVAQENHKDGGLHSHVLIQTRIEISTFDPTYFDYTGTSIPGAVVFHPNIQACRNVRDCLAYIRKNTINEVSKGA
Experimental: as §1

[7] = system: T7, Rep nickase domain of porcine circovirus 2
T7 sequence (residues 2-116 of Rep, tag left off): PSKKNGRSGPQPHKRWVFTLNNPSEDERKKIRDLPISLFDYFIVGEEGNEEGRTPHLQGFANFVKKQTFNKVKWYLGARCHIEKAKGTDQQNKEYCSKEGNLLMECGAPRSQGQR
Experimental: as §1

[8] = system: T8, Rep nickase domain of tomato golden mosaic virus
T8 sequence (residues 1-124 of Rep, tag left off): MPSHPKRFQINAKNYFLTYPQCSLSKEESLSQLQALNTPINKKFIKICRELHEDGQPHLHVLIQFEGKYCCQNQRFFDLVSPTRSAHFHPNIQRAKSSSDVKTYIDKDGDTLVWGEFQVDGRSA
Experimental: as §1

[9] = system: T9, Rep nickase domain of tomato yellow leaf curl virus
T9 sequence (residues 1-136 of Rep, tag left off): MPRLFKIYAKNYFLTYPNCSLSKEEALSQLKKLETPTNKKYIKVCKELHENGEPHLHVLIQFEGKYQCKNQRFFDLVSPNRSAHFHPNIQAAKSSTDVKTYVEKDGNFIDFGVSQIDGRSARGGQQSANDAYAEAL
Experimental: as §1

[10] = system: T10, Rep nickase domain of wheat dwarf virus
T10 sequence (residues 1-137 of Rep, tag left off): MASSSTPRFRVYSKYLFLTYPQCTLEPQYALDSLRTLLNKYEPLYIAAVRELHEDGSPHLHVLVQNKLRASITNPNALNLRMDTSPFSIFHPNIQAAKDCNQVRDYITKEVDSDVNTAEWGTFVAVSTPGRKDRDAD
Experimental: as §1

Sequence	uncleaved DNA left (log2) [1]	uncleaved DNA left (log2) [2]	uncleaved DNA left (log2) [3]	uncleaved DNA left (log2) [4]	uncleaved DNA left (log2) [5]	uncleaved DNA left (log2) [6]	uncleaved DNA left (log2) [7]	uncleaved DNA left (log2) [8]	uncleaved DNA left (log2) [9]	uncleaved DNA left (log2) [10]
CGAACAA	0.143	0.0805	0.118	0.1	0.0926	-0.038	0.0722	0.0447	0.0619	0.16
TCCGAGG	0.0778	0.038	0.578	1.32	0.0175	1.72	0.179	0.137	-0.0919	-0.0173
AGCGTCG	-0.125	0.0614	-0.101	0.149	-0.0498	0.329	0.0949	0.0653	0.0174	-0.0565
AACCATT	0.0495	0.0332	-0.27	-2.57	0.0694	-0.772	-2.96	0.162	0.0643	0.153
TCAATAA	-0.0421	0.0249	-0.0392	-0.199	-0.012	-0.601	0.0525	0.0585	0.0288	-0.00884
TACTCAC	-0.165	-0.0186	-0.153	-0.954	0.0282	-0.487	-1.43	-0.056	-0.0664	0.0465
CGAACTA	-0.0751	-0.0277	-0.129	-0.0976	0.00215	0.73	-0.153	-0.185	-0.0683	0.0729
CGATCTT	-0.666	-0.226	-0.0548	0.0992	-0.108	1.23	-1.01	-0.265	-0.103	-0.0048
AGACCCG	0.0213	-0.0271	0.882	1.81	0.0353	1.97	-0.0452	0.0662	-0.0536	0.208
CGTGTCC	-0.0659	-0.0394	0.0923	0.109	-0.038	0.268	-0.151	-0.0245	-0.0151	0.0182
ACCGACC	-0.134	-0.164	-0.278	0.119	-0.1	-0.853	0.0643	-0.135	-0.114	-0.163
CATTGAT	-2.68	-3.47	-0.615	-0.81	-0.0627	-1.02	-3.49	-0.0567	-0.0417	0.00636
TACCTAC	0.0601	-0.0759	-0.299	-2.09	0.0919	-0.648	-0.776	-0.0695	0.00606	0.0569
TAGACGT	0.035	0.068	0.262	0.487	0.057	0.576	-1.91	0.0585	0.0459	0.117
GTGTGCA	-0.0382	0.0514	0.203	0.659	-0.124	0.924	0.0496	-0.0296	0.0958	0.019
CGACTGG	0.0369	-0.115	-0.103	0.555	-0.069	1.4	0.0746	-0.0558	-0.0285	0.166
AAGACGT	0.044	-0.0117	0.166	0.619	-0.0208	0.577	-0.887	-0.056	-0.0644	0.0327
CGCTTTC	0.0262	-0.0982	-0.0313	-0.141	-0.0243	-0.564	0.0598	-0.0629	-0.106	-0.0687
AGTAGCC	-0.0141	-0.0167	0.0275	0.156	-0.144	-0.716	0.00658	-0.0536	-0.0331	-0.0656
CCTGGAA	-0.0488	0.0769	0.18	0.407	-0.0247	0.195	0.045	-0.037	-0.099	-0.00839

Sequence	uncleaved DNA left (log2) [1]	uncleaved DNA left (log2) [2]	uncleaved DNA left (log2) [3]	uncleaved DNA left (log2) [4]	uncleaved DNA left (log2) [5]	uncleaved DNA left (log2) [6]	uncleaved DNA left (log2) [7]	uncleaved DNA left (log2) [8]	uncleaved DNA left (log2) [9]	uncleaved DNA left (log2) [10]
GACGGTG	0.0345	-0.0315	-0.389	-0.212	0.096	-0.418	0.0974	-0.00549	0.0786	-0.156
GATTATT	-2.81	-2.84	-1.79	-2.35	-2.36	0.52	-3.17	-2.16	-0.0221	-0.955
ATCCCAT	-0.0408	0.018	-0.103	-0.585	-0.00543	-0.484	-0.142	-0.089	0.042	-0.0333
TTCGATG	0.161	-0.0704	-0.0312	0.144	0.156	-0.0629	0.137	0.0698	-0.0653	0.0315
CCGTCGA	-0.0553	-0.219	-0.648	-0.693	-0.0668	-0.947	-0.129	-0.227	-0.107	-0.254
GTTCCTT	0.0948	0.238	0.37	0.848	0.0402	1.78	0.165	0.188	0.134	0.237
GAATTAT	-1.15	-0.111	-3.01	-2.58	-0.14	-0.582	-3.24	-1.67	0.0122	-2.68
ACGTTCA	0.0484	-0.0421	-0.153	-1.19	0.00362	-0.497	-0.0518	0.0743	0.00367	0.0158
ATTAAGA	0.102	0.0827	-0.0118	-0.151	0.0499	-1.04	0.105	0.113	0.0912	-0.00571
GTCAGAT	0.0826	-0.0335	0.319	0.908	0.00498	1.67	0.182	0.0881	0.0827	0.0864
GTAGGTG	0.0388	-0.0229	-0.24	-0.195	-0.124	-0.501	-0.0245	-0.00836	0.0227	-0.168
GTTGGTG	0.0392	-0.00402	-0.281	-0.176	0.122	-0.606	0.162	0.0424	0.121	-0.0304
CGCTAGC	-0.219	0.0265	0.215	0.536	0.0439	0.214	-0.0829	-0.0768	-0.0592	-0.074
TAATTTT	-4.18	-3.57	-5.64	-3.38	-1.06	-4.46	-5.1	-4.29	-3.82	-5.44
CCGGTCG	-0.0451	-0.0456	0.171	1.3	-0.0476	1.25	0.0471	0.0713	-0.0662	-0.241
TGTCTGT	0.067	0.049	0.204	0.194	0.0219	0.434	0.0583	-0.103	0.0723	0.0789
ATTAGAG	0.00353	0.0222	-0.68	-0.462	0.0381	-1.12	0.19	0.045	-0.0139	0.0503
CGGAGTC	0.0856	0.172	0.359	0.46	0.167	0.283	0.149	0.0187	0.135	0.163
TAGATAA	0.143	0.0503	-0.0306	-0.592	0.0946	-0.208	-0.675	0.0743	0.0259	0.136
AAACAAA	0.0117	-0.0203	-0.109	-1.03	-0.0357	-0.551	-0.0172	-0.0029	-0.0647	-0.0128

Sequence	uncleaved DNA left (log2) [1]	uncleaved DNA left (log2) [2]	uncleaved DNA left (log2) [3]	uncleaved DNA left (log2) [4]	uncleaved DNA left (log2) [5]	uncleaved DNA left (log2) [6]	uncleaved DNA left (log2) [7]	uncleaved DNA left (log2) [8]	uncleaved DNA left (log2) [9]	uncleaved DNA left (log2) [10]
TAATTTC	-1.69	-0.159	-4.12	-3.59	-0.0709	-3.58	-2.1	-3.92	-0.383	-4.06
CCGGCTT	-0.14	-0.221	-0.0319	-0.508	-0.198	0.644	-0.197	-0.13	-0.294	-0.217
CGATATC	0.0365	-0.0441	0.181	0.234	-0.087	-0.178	0.0169	-0.0857	-0.0197	0.0466
GACGGGC	0.0741	-0.00191	0.428	1	0.0249	0.982	0.151	0.0998	0.0217	0.0604
GTGGATG	-0.0639	0.0832	0.333	1.09	-0.091	1.45	0.239	0.171	0.000642	0.102
AAGATTC	0.195	0.201	0.0961	-0.228	0.181	-0.331	0.0706	0.0162	0.0151	0.149
GCCATTT	-0.108	0.112	-0.0711	-0.885	0.0471	-0.473	-0.0682	-0.0248	0.0894	-0.0873
CGAAAAC	0.0719	-0.0042	-0.0166	-0.241	0.0566	-0.549	0.105	0.0223	-0.0149	0.105
GTGTTGC	-0.0377	-0.157	0.0388	0.406	-0.0411	0.443	-0.00409	-0.0222	-0.0518	-0.018
CAATTTT	-4.15	-3.04	-4.58	-3.94	-0.225	-3.75	-4.68	-4.32	-2.41	-4.43
AGCGCGC	0.0531	0.0567	-0.139	0.1	0.00372	-0.0899	0.111	0.000559	-0.0935	0.00625
ATTCTCA	-0.106	0.0298	-0.00606	-1.21	0.0257	-0.422	-0.182	0.0498	0.241	0.268
ATAACCC	-0.307	-0.197	-0.413	-1.54	-0.0866	-0.644	-0.958	-0.12	-0.219	-0.091
TGAGGCC	0.0733	-0.052	0.259	0.536	-0.108	0.367	-0.0748	0.0853	0.0353	0.0484
GCTCCTC	-0.0128	0.191	0.261	0.471	0.015	0.709	0.214	0.136	0.104	0.154
AACCCCC	-0.147	-0.00401	0.315	-0.0555	0.0476	0.129	-0.659	-0.0965	0.0645	0.0218
TGAACCC	0.0692	0.0694	0.426	0.428	0.142	0.736	-0.38	-0.0437	0.12	0.2
GACAAGC	-0.0929	0.0397	0.114	0.537	0.000908	-0.238	0.134	0.0204	-0.0232	0.0254
TGAGGTT	0.0981	0.0695	0.517	1.23	0.0604	1.9	0.301	0.27	0.103	0.0818
GCGTTGG	0.0286	0.00249	-0.439	-0.234	-0.0599	-0.796	0.101	0.00565	-0.0461	-0.208
